In US11285169B2, “Methods for modulating chemotherapeutic cytotoxicity” (The United States of America, as represented by the …, priority 2013, dated 2022):
Where a name gives a salt, the structure may show the parent alone. Read-outs that look alike come from different tables or passages of the source. Starred links: 1 amine or outer side, 2 acyl side, 3 side chain; linkers in the order of their positions; H or OH if unused. Positions of bridges follow the written chain, without caps; N, C: chain ends. Non-standard residues stand in square brackets, D forms with d. Residues, ends and D or L forms follow the SMILES beside them. Chains are numbered I, II in the order given. Actinocin(9to1) = Cc1c2oc3c(C)ccc(C(=O)[*:1])c3nc-2c(C(=O)[*:2])c(N)c1=O; NMeV = CN[C@H](C(=O)O)C(C)C; Sar = CNCC(=O)O

Columns and labels:
WT Jurkat cells = conditions: for AC50: read-out: AC50 (μM) WT
[1] = test system: CD47 deficient (CD47 KO) Jurkat T cells; conditions: for Δ LogAC50 CD47KO-WT: log AC50 difference CD47 KO minus WT; for AC50: read-out: AC50 (μM) CD47 KO, cell viability
[2] = WT Jurkat cells, 48 hours, 10^-9 to 10^-4 M, CellTiter-Glo
[3] = WT Jurkat cells, cell viability, 48 hours
[4] = CD47 KO Jurkat T cells, 48 hours, 10^-9 to 10^-4 M, CellTiter-Glo
[5] = difference CD47 KO minus WT Jurkat cells, 48 hours
[6] = CD47 KO Jurkat T cells, 48 hours

Molecule	Maximal Response WT (RLU) (WT Jurkat cells; [2])	Maximal Response CD47 KO (RLU) [1, 4] [RLU]	also measured
COc1cc2c(cc1O)CC[C@@H]1[C@@H]2CC[C@]2(C)[C@@H](O)CC[C@@H]12 [2-Methoxyestradiol]	21.899	45.435	AC50 (WT Jurkat cells; [3]): 0.469 µM; Δ Maximal Response CD47KO-WT [1, 5]: 23.536; Δ LogAC50 CD47KO-WT [1]: 1.15; AC50 [1, 6]: 6.62 µM
CC(=O)O[C@@]12CO[C@@H]1C[C@H](O)[C@@]1(C)C(=O)[C@H](O)C3=C(C)[C@@H](O)C[C@@](O)([C@@H](OC(=O)c4ccccc4)[C@H]21)C3(C)C [10-Deacetylbaccatin]	–	–	Maximal Response WT (RLU) (WT Jurkat cells): 39.362 RLU; Maximal Response CD47 KO (RLU) [1]: 76.768 RLU; Δ Maximal Response CD47KO-WT [1]: 37.406
CC[C@@]1(O)C(=O)OCc2c1cc1n(c2=O)Cc2cc3cc(O)ccc3nc2-1 [10-hydroxy-camptothecin]	9.333	33.266	AC50 (WT Jurkat cells; [3]): 0.0209 µM; cytotoxicity in CD47 deficient versus wild-type Jurkat cells (FIGS. 14, 15) ([1]; 48 hours, increasing concentrations): protected; Δ Maximal Response CD47KO-WT [1, 5]: 23.933; Δ LogAC50 CD47KO-WT [1]: 1.2; AC50 [1, 6]: 0.332 µM
CCCCC(C)(C)[C@H](O)/C=C/[C@H]1[C@H](O)CC(=O)[C@@H]1C/C=C\CCCC(=O)O [16,16-dimethyl PGE2]	–	–	Maximal Response WT (RLU) (WT Jurkat cells): 31.844 RLU; Maximal Response CD47 KO (RLU) [1]: 73.807 RLU; Δ Maximal Response CD47KO-WT [1]: 41.963
N#Cc1c(O)c2c(-c3ccc(-c4ccccc4O)cc3)csc2[nH]c1=O [A-769662]	69.086	125.676	Δ Maximal Response CD47KO-WT [1, 5]: 56.59
O=C(NCc1ccncc1)C12CC3CC(C1)CC(c1ccc(Cl)cc1)(C3)C2 [ABC-294640]	8.808	32.778	–
Cc1ccc(C(C)(O)c2nc3ccccc3s2)c(C)c1 (stereo not drawn) [AC-265347]	76.539	108.022	Δ Maximal Response CD47KO-WT [1, 5]: 31.483
CCOC(CN1C(=O)[C@](CC(=O)Nc2ccc(C)cc2)(NC(=O)Nc2ccc(C)cc2)c2ccccc21)OCC [AG-041R]	9.739	52.368	Δ Maximal Response CD47KO-WT [1, 5]: 42.629
CC(C)(C)c1cc(C=C(C#N)C#N)cc(Br)c1O [AG-1024]	21.585	55.705	Δ Maximal Response CD47KO-WT [1, 5]: 34.12
Cc1ccccc1C(C(=O)NC1CCCCC1)N(C(=O)Cn1ccnc1C)c1cccc(F)c1 (stereo not drawn) [AGI-5198]	24.153	45.976	–
c1ccc(-c2oc3ncnc(NC[C@@H]4CCCO4)c3c2-c2ccccc2)cc1 [AIM-100]	–	–	AC50 (WT Jurkat cells; [3]): 4.18 µM; Δ LogAC50 CD47KO-WT [1]: 0.6; AC50 [1, 6]: 16.6 µM
COc1ccc(C(=O)c2c(C)n(CCN3CCOCC3)c3cc(I)ccc23)cc1 [AM-630]	–	–	Maximal Response WT (RLU) (WT Jurkat cells): 12.87 RLU; Maximal Response CD47 KO (RLU) [1]: 36.125 RLU; Δ Maximal Response CD47KO-WT [1]: 23.255
Cc1csc(-c2nnc(Nc3ccc(Oc4ncccc4-c4ccnc(N)n4)cc3)c3ccccc23)c1 [AMG-900]	26.057	52.081	–
COCC1(CO)C(=O)C2CCN1CC2 (stereo not drawn) [APR-246]	–	–	AC50 (WT Jurkat cells; [3]): 1.48 µM; Δ LogAC50 CD47KO-WT [1]: 1.05; AC50 [1, 6]: 16.6 µM
CC(C)[C@H](C(=O)Nc1ccc(C(=O)NO)cc1)c1ccccc1 [AR-42]	–	–	AC50 (WT Jurkat cells; [3]): 0.296 µM; Δ LogAC50 CD47KO-WT [1]: 0.5; AC50 [1, 6]: 0.935 µM
C[C@H]1[C@@H](CC(C[C@H]2O[C@@H]3O[C@]4(C)CC[C@H]5[C@H](C)CC[C@@H]([C@H]2C)[C@@]35OO4)CS(=O)(=O)c2ccc(COC(=O)N(C)C)cc2)O[C@@H]2O[C@]3(C)CC[C@H]4[C@H](C)CC[C@@H]1[C@@]24OO3 (stereo partly drawn) [ASR-isobudimer-SO2Ph-4-CH2OC(O)NMe2]	27.802	50.082	Δ Maximal Response CD47KO-WT [1, 5]: 22.28
O=C(NC1CCNCC1)c1[nH]ncc1NC(=O)c1c(Cl)cccc1Cl [AT-7519]	1.678	27.655	–
O=C(Nc1c[nH]nc1-c1nc2ccc(CN3CCOCC3)cc2[nH]1)NC1CC1 [AT-9283]	2.937	24.648	–
O=C1CSC(=O)N1C(CCc1ccncc1)COc1ccc(-c2cccc([N+](=O)[O-])c2)cc1 (stereo not drawn) [AZ 11645373]	3.025	35.262	Δ Maximal Response CD47KO-WT [1, 5]: 32.237
NC(=O)Nc1cc(-c2cccc(F)c2)sc1C(=O)N[C@H]1CCCNC1 [AZD-7762]	9.778	39.585	–
COc1ccc2c(c1)c(CC(=O)OCC(=O)O)c(C)n2C(=O)c1ccc(Cl)cc1 [Acemetacin]	103.666	130.505	–

Molecule	Maximal Response WT (RLU) (WT Jurkat cells; [2])	Maximal Response CD47 KO (RLU) [1, 4] [RLU]	also measured
Cc1c2oc3c(C)ccc(C(=O)N[C@@H]4C(=O)N[C@H](C(C)C)C(=O)N5CCC[C@H]5C(=O)N(C)CC(=O)N(C)[C@@H](C(C)C)C(=O)O[C@@H]4C)c3nc-2c(C(=O)N[C@@H]2C(=O)N[C@H](C(C)C)C(=O)N3CCC[C@H]3C(=O)N(C)CC(=O)N(C)[C@@H](C(C)C)C(=O)O[C@@H]2C)c(N)c1=O [Actinomycin D] (I: T[dV]P[Sar][NMeV] / II: T[dV]P[Sar][NMeV]; ester I:1-I:C, II:1-II:C; linker I:N-II:N via Actinocin(9to1))	–	–	Maximal Response WT (RLU) (WT Jurkat cells): 2.014 RLU; Maximal Response CD47 KO (RLU) [1]: 42.128 RLU; Δ Maximal Response CD47KO-WT [1]: 40.114
COc1ccc(-c2ccc3cc(C(=O)O)ccc3c2)cc1C12CC3CC(CC(C3)C1)C2 [Adapalene]	20.674	48.053	–
CN(C)CC(C)(C)CNc1nn2c(-c3ccccc3)nnc2cc1C1CCC1 [Akt-l-1]	10.094	72.553	AC50 (WT Jurkat cells; [3]): 2.35 µM; Δ Maximal Response CD47KO-WT [1, 5]: 62.459; Δ LogAC50 CD47KO-WT [1]: 0.85; AC50 [1, 6]: 16.6 µM
COc1cc(Nc2ncc3c(n2)-c2ccc(Cl)cc2C(c2c(F)cccc2OC)=NC3)ccc1C(=O)O [Alisertib]	28.645	53.002	–
CCOC(=O)[C@H]1O[C@@H]1C(=O)N[C@@H](CC(C)C)C(=O)NCCC(C)C [Aloxistatin]	104.466	132.797	–
Clc1ccc2c(c1)C(N1CCNCC1)=Nc1ccccc1O2 [Amoxapine]	28.037	60.648	–
CC1(C)S[C@@H]2[C@H](NC(=O)[C@H](N)c3ccc(O)cc3)C(=O)N2[C@H]1C(=O)[O-].[Na+] [Amoxicillin sodium]	27.97	61.467	Δ Maximal Response CD47KO-WT [1, 5]: 33.497
COc1cc2cc(c1Cl)N(C)C(=O)C[C@H](OC(=O)C(C)C)[C@]1(C)O[C@@H]1[C@H](C)[C@@H]1C[C@@](O)(NC(=O)O1)[C@H](OC)/C=C/C=C(\C)C2 [Ansamitocin P3]	–	–	Maximal Response WT (RLU) (WT Jurkat cells): 5.732 RLU; Maximal Response CD47 KO (RLU) [1]: 32.337 RLU; Δ Maximal Response CD47KO-WT [1]: 26.605
CC1CNc2c(cccc2S(=O)(=O)N[C@@H](CCCNC(=N)N)C(=O)N2CC[C@@H](C)C[C@@H]2C(=O)O)C1 (stereo partly drawn) [Argatroban]	64.584	92.128	–
C[C@H]1[C@H](C)CC[C@]2(C(=O)O)CC[C@]3(C)C(=CC[C@@H]4[C@@]5(C)C[C@@H](O)[C@H](O)[C@@](C)(CO)[C@@H]5CC[C@]43C)[C@H]12 [Asiatic acid]	61.399	87.171	–
COC(=O)[C@H](Cc1ccccc1)NC(=O)[C@@H](N)CC(=O)O [Aspartame] (H-Asp-Phe-OMe)	103.971	127.356	–
CC(C)c1c(C(=O)Nc2ccccc2)c(-c2ccccc2)c(-c2ccc(F)cc2)n1CC[C@@H](O)C[C@@H](O)CC(=O)[O-].CC(C)c1c(C(=O)Nc2ccccc2)c(-c2ccccc2)c(-c2ccc(F)cc2)n1CC[C@@H](O)C[C@@H](O)CC(=O)[O-].[Ca+2] [Atorvastatin calcium]	34.989	57.007	Δ Maximal Response CD47KO-WT [1, 5]: 22.018
C/C(=C\C(=O)Nc1ccccc1C(=O)O)c1ccc2ccccc2c1 [BIBR 1532]	23.105	45.071	Δ Maximal Response CD47KO-WT [1, 5]: 21.966
Cc1ccc2nc(NCCN)c3ncc(C)n3c2c1 [BMS-345541]	1.923	23.272	–
C[C@@]1(C(=O)Nc2ccc(F)nc2)CCCN1c1nc(Nc2cc(C3CC3)n[nH]2)c2cccn2n1 [BMS-754807]	47.422	82.867	–
COc1cccc2c1C(=O)c1c(O)c3c(c(O)c1C2=O)C[C@@](O)(C(=O)CO)C[C@@H]3O[C@H]1C[C@H](N)[C@H](O)[C@H](C)O1 [Doxorubicin]	–	61.232	–
COC(=O)C1=C(C)NC(C)=C(C(=O)OCCCN2CCC(c3ccccc3)(c3ccccc3)CC2)[C@H]1c1cccc([N+](=O)[O-])c1 [Niguldipine]	–	–	Maximal Response WT (RLU) (WT Jurkat cells): 102.048 RLU
C/C=C/C[C@@H](C)C(=O)[C@H]1C(=O)N[C@@H](C(C)C)C(=O)N(C)CC(=O)N(C)[C@@H](CC(C)C)C(=O)N[C@@H](C(C)C)C(=O)N(C)[C@@H](CC(C)C)C(=O)N[C@@H](C)C(=O)N[C@H](C)C(=O)N(C)[C@@H](CC(C)C)C(=O)N(C)[C@@H](CC(C)C)C(=O)N(C)[C@@H](C(C)C)C(=O)N1C [Valspodar]	56.155	–	–
O[C@@H](COc1cccc2ncccc12)CN1CCN([C@@H]2c3ccccc3[C@@H]3[C@H](c4ccccc42)C3(F)F)CC1 [Zosuquidar trihydrochloride]	17.315	–	–
AZD-5363	–	–	Maximal Response WT (RLU) (WT Jurkat cells): 1.231 RLU; AC50 (WT Jurkat cells): 0.166 µM
